# The other results are listed elsewhere or left out.
# Tests used:
# Assay in all cases: glycan array binding signal (z-score within array); higher = stronger binding
# Conditions in all cases: glycan notation: IUPAC condensed, linker removed
# Fuc(a1-2)Gal = target: Fuc(a1-2)Gal
# How it was run: (§1)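 The binding signal is a Z-score computed within each array and averaged over linkers. Arrays of the same protein sequence at different concentrations or buffers were also averaged together. Data originate from 3228 arrays in the Consortium for Functional Glycomics database, kept only where the protein sequence was available.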
# Fuc(a1-2)Gal(b1-3)GalNAc = target: Fuc(a1-2)Gal(b1-3)GalNAc
# How it was run: as §1
# [1] = target: Fuc(a1-2)Gal(b1-3)GalNAc(a1-3)[Fuc(a1-2)]Gal(b1-4)Glc
# How it was run: as §1
# [2] = target: Fuc(a1-2)Gal(b1-3)GalNAc(a1-3)[Fuc(a1-2)]Gal(b1-4)GlcNAc
# How it was run: as §1
# [3] = target: Fuc(a1-2)Gal(b1-3)GalNAc(b1-3)Gal
# How it was run: as §1
# [4] = target: Fuc(a1-2)Gal(b1-3)GalNAc(b1-3)Gal(a1-4)Gal(b1-4)Glc
# How it was run: as §1
# [5] = target: Fuc(a1-2)Gal(b1-3)GalNAc(b1-4)[Neu5Ac(a2-3)]Gal(b1-4)Glc
# How it was run: as §1
# Fuc(a1-2)Gal(b1-3)GlcNAc = target: Fuc(a1-2)Gal(b1-3)GlcNAc
# How it was run: as §1
# [6] = target: Fuc(a1-2)Gal(b1-3)GlcNAc(b1-2)Man(a1-3)[Fuc(a1-2)Gal(b1-3)GlcNAc(b1-2)Man(a1-6)]Man(b1-4)GlcNAc(b1-4)GlcNAc
# How it was run: as §1
# [7] = target: Fuc(a1-2)Gal(b1-3)GlcNAc(b1-2)Man(a1-3)[Fuc(a1-2)Gal(b1-3)GlcNAc(b1-2)Man(a1-6)]Man(b1-4)GlcNAc(b1-4)[Fuc(a1-6)]GlcNAc
# How it was run: as §1
# [8] = target: Fuc(a1-2)Gal(b1-3)GlcNAc(b1-3)Gal(b1-4)Glc
# How it was run: as §1
# [9] = target: Fuc(a1-2)Gal(b1-3)GlcNAc(b1-3)GalNAc
# How it was run: as §1
# [10] = target: Fuc(a1-2)Gal(b1-3)GlcNAc(b1-3)[Fuc(a1-2)Gal(b1-3)GlcNAc(b1-6)]GalNAc
# How it was run: as §1
# [11] = target: Fuc(a1-2)Gal(b1-3)GlcNAc(b1-3)[Gal(b1-4)GlcNAc(b1-6)]Gal(b1-4)Glc
# How it was run: as §1
# [12] = target: Fuc(a1-2)Gal(b1-3)GlcNAc(b1-3)[Neu5Ac(a2-6)Gal(b1-4)GlcNAc(b1-6)]Gal(b1-4)Glc
# How it was run: as §1
# [13] = target: Fuc(a1-2)Gal(b1-3)GlcNAc6S
# How it was run: as §1
# [14] = target: Fuc(a1-2)Gal(b1-3)[Fuc(a1-4)]GlcNAc
# How it was run: as §1
# [15] = target: Fuc(a1-2)Gal(b1-3)[Fuc(a1-4)]GlcNAc(b1-2)Man(a1-3)[Fuc(a1-2)Gal(b1-3)[Fuc(a1-4)]GlcNAc(b1-2)Man(a1-3)]Man(b1-4)GlcNAc(b1-4)GlcNAc
# How it was run: as §1
# [16] = target: Fuc(a1-2)Gal(b1-3)[Fuc(a1-4)]GlcNAc(b1-2)Man(a1-3)[Fuc(a1-2)Gal(b1-3)[Fuc(a1-4)]GlcNAc(b1-2)Man(a1-6)]Man(b1-4)GlcNAc(b1-4)[Fuc(a1-6)]GlcNAc(b1-4)[Fuc(a1-6)]GlcNAc
# How it was run: as §1
# [17] = target: Fuc(a1-2)Gal(b1-3)[Fuc(a1-4)]GlcNAc(b1-3)[Fuc(a1-3)[Gal(b1-4)]GlcNAc(b1-6)]Gal(b1-4)Glc
# How it was run: as §1
# [18] = target: Fuc(a1-2)Gal(b1-3)[Fuc(a1-4)]GlcNAc(b1-3)[Gal(b1-4)GlcNAc(b1-6)]Gal(b1-4)Glc
# How it was run: as §1
# Fuc(a1-2)Gal(b1-4)Glc = target: Fuc(a1-2)Gal(b1-4)Glc
# How it was run: as §1
# Fuc(a1-2)Gal(b1-4)Glc6S = target: Fuc(a1-2)Gal(b1-4)Glc6S
# How it was run: as §1
# Fuc(a1-2)Gal(b1-4)GlcNAc = target: Fuc(a1-2)Gal(b1-4)GlcNAc
# How it was run: as §1
# [19] = target: Fuc(a1-2)Gal(b1-4)GlcNAc(b1-2)Man
# How it was run: as §1
# [20] = target: Fuc(a1-2)Gal(b1-4)GlcNAc(b1-2)Man(a1-3)[Fuc(a1-2)Gal(b1-4)GlcNAc(b1-2)Man(a1-6)]Man(b1-4)GlcNAc(b1-4)GlcNAc
# How it was run: as §1
# [21] = target: Fuc(a1-2)Gal(b1-4)GlcNAc(b1-2)Man(a1-3)[Fuc(a1-2)Gal(b1-4)GlcNAc(b1-2)Man(a1-6)]Man(b1-4)GlcNAc(b1-4)[Fuc(a1-6)]GlcNAc
# How it was run: as §1
# [22] = target: Fuc(a1-2)Gal(b1-4)GlcNAc(b1-2)[Fuc(a1-2)Gal(b1-4)GlcNAc(b1-4)]Man(a1-3)[Fuc(a1-2)Gal(b1-4)GlcNAc(b1-2)Man(a1-6)]Man(b1-4)GlcNAc(b1-4)GlcNAc
# How it was run: as §1
# [23] = target: Fuc(a1-2)Gal(b1-4)GlcNAc(b1-3)Gal(b1-4)GlcNAc
# How it was run: as §1
# [24] = target: Fuc(a1-2)Gal(b1-4)GlcNAc(b1-3)Gal(b1-4)GlcNAc(b1-2)Man(a1-3)[Fuc(a1-2)Gal(b1-4)GlcNAc(b1-3)Gal(b1-4)GlcNAc(b1-2)Man(a1-6)]Man(b1-4)GlcNAc(b1-4)GlcNAc
# How it was run: as §1
binder,measurement,setting,value
HPL (Tachypleus tridentatus) (protein) MEDDCTCVTDRSLEGKLMKHPSTPAVYQILDGCRRLVPNPPTYNNIYKNWECIQSNILEKLLCKCDSLSNGAELIKGSGDTVYLLSNGVKRPIADPETFNGFCFDWNKIKTYSDIVINSLSTGPIIIIKHHHHHH,glycan array binding signal (z-score),Fuc(a1-2)Gal,-0.153
same,glycan array binding signal (z-score),Fuc(a1-2)Gal(b1-3)GalNAc,-0.356
same,glycan array binding signal (z-score),[1],-0.298
same,glycan array binding signal (z-score),[2],-0.327
same,glycan array binding signal (z-score),[3],-0.193
same,glycan array binding signal (z-score),[4],-0.202
same,glycan array binding signal (z-score),[5],-0.239
same,glycan array binding signal (z-score),Fuc(a1-2)Gal(b1-3)GlcNAc,-0.294
same,glycan array binding signal (z-score),[6],4.15
same,glycan array binding signal (z-score),[7],-0.043
same,glycan array binding signal (z-score),[8],-0.339
same,glycan array binding signal (z-score),[9],-0.151
same,glycan array binding signal (z-score),[10],0.261
same,glycan array binding signal (z-score),[11],-0.298
same,glycan array binding signal (z-score),[12],-0.343
same,glycan array binding signal (z-score),[13],-0.259
same,glycan array binding signal (z-score),[14],-0.299
same,glycan array binding signal (z-score),[15],0.082
same,glycan array binding signal (z-score),[16],-0.146
same,glycan array binding signal (z-score),[17],-0.269
same,glycan array binding signal (z-score),[18],-0.14
same,glycan array binding signal (z-score),Fuc(a1-2)Gal(b1-4)Glc,0.039
same,glycan array binding signal (z-score),Fuc(a1-2)Gal(b1-4)Glc6S,0.223
same,glycan array binding signal (z-score),Fuc(a1-2)Gal(b1-4)GlcNAc,-0.381
same,glycan array binding signal (z-score),[19],0.485
same,glycan array binding signal (z-score),[20],1.38
same,glycan array binding signal (z-score),[21],3.19
same,glycan array binding signal (z-score),[22],-0.079
same,glycan array binding signal (z-score),[23],-0.193
same,glycan array binding signal (z-score),[24],0.295

# — the supplement of paper PMC8728848
